# Some of the results follow.
# System: HSkMC (human skeletal muscle cells)
# Test: cytotoxicity call (relative viability < 0.9)
# Conditions: 10 µM
row,SMILES,cytotoxicity call
1,CC1(C)S[C@@H]2[C@H](NC(=O)C3(N)CCCCC3)C(=O)N2[C@H]1C(=O)O,inactive
2,C[C@@H]1CN([C@@H](C)CO)C(=O)c2cc(NC(=O)Nc3ccc(C(F)(F)F)cc3)ccc2O[C@@H](C)CCCCO[C@@H]1CN(C)C(=O)NC1CCCCC1,inactive
3,C[C@@H]1CCCCO[C@H](CN(C)S(=O)(=O)c2ccccc2)[C@@H](C)CN([C@H](C)CO)C(=O)c2cc(NC(=O)Nc3ccc(F)cc3)ccc2O1,inactive
4,C[C@@H]1CN([C@H](C)CO)S(=O)(=O)c2ccc(-c3cccnc3)cc2O[C@@H]1CN(C)C(=O)NC1CCCC1,inactive
5,C[C@H](CO)N1C[C@H](C)[C@H](CN(C)C(=O)Nc2ccc(F)cc2)Oc2ccc(NC(=O)CCCCCC(=O)Nc3ccccc3N)cc2C1=O,inactive
6,C[C@H](CO)N1C[C@H](C)[C@H](CN(C)S(C)(=O)=O)Oc2ccc(NC(=O)CCCCCC(=O)Nc3ccccc3N)cc2C1=O,inactive
7,C[C@H]1CN([C@@H](C)CO)C(=O)c2cccc(NS(=O)(=O)c3cccs3)c2O[C@H]1CN(C)S(=O)(=O)c1cccs1,inactive
8,COc1ccc(CN(C)C[C@@H]2Oc3c(NC(=O)c4ccc(-c5nccs5)cc4)cccc3C(=O)N([C@H](C)CO)C[C@@H]2C)cc1,inactive
9,O=C(O)CSCC(=O)N1CCCCC1,inactive
10,C[C@@H]1CN([C@@H](C)CO)S(=O)(=O)c2ccc(C#C[C@@H](C)O)cc2O[C@@H]1CN(C)C(=O)C1CCCCC1,inactive
11,O=C(NC[C@@H](O)CO)[C@]1(Cc2ccccc2)N=C(c2ccc(OCCCO)cc2)O[C@@H]1c1ccccc1,inactive
12,C[C@@H]1CCCCO[C@H](CN(C)S(=O)(=O)c2ccccc2)[C@H](C)CN([C@H](C)CO)C(=O)c2cc(NC(=O)Nc3ccccc3)ccc2O1,inactive
13,Cc1noc(C)c1NC(=O)Nc1ccc2c(c1)C(=O)N([C@@H](C)CO)C[C@@H](C)[C@H](CN(C)CC1CCCCC1)OCCCC[C@H](C)O2,inactive
14,C[C@H]1CN([C@@H](C)CO)C(=O)c2c(c3ccccc3n2C)-c2ccccc2CO[C@H]1CN(C)C(=O)CCC(F)(F)F,inactive
15,C[C@H]1CN([C@@H](C)CO)C(=O)Cc2cc(NC(=O)Nc3ccc(F)cc3)ccc2O[C@H]1CN(C)Cc1ccc(Cl)c(Cl)c1,active
16,Cc1noc(C)c1S(=O)(=O)N(C)C[C@H]1OCCCC[C@@H](C)Oc2ccc(NC(=O)Nc3cccc4ccccc34)cc2C(=O)N([C@@H](C)CO)C[C@H]1C,inactive
17,COc1ccc(S(=O)(=O)Nc2ccc3c(c2)C(=O)N([C@@H](C)CO)C[C@@H](C)[C@@H](CN(C)C(=O)CCC(F)(F)F)OCCCC[C@@H](C)O3)cc1,inactive
18,C[C@@H]1CN([C@@H](C)CO)C(=O)c2cccc(NC(=O)c3cnccn3)c2O[C@H]1CN(C)S(=O)(=O)c1ccccc1,inactive
19,C[C@@H]1CCCCO[C@H](CN(C)CC2CC2)[C@@H](C)CN([C@H](C)CO)C(=O)c2cc(NC(=O)Nc3ccccc3)ccc2O1,inactive
20,C[C@H]1CN([C@@H](C)CO)C(=O)c2cc(NS(=O)(=O)c3ccc(Cl)cc3)ccc2O[C@@H]1CN(C)C(=O)Nc1cccc2ccccc12,inactive

row,SMILES,cytotoxicity call
1,Cc1noc(C)c1NC(=O)Nc1ccc2c(c1)CC(=O)N([C@@H](C)CO)C[C@H](C)[C@@H](CN(C)Cc1ccc(C(F)(F)F)cc1)O2,inactive
2,C[C@@H]1CCCCO[C@@H](CN(C)C(=O)C2CCCCC2)[C@@H](C)CN([C@@H](C)CO)C(=O)c2cc(NC(=O)Nc3cccc4ccccc34)ccc2O1,inactive
3,C[n+]1c2cc(N)ccc2cc2ccc(N)cc21.[Cl-],inactive
4,CC(O)C(=O)O.CCOc1ccc2nc3cc(N)ccc3c(N)c2c1,inactive
5,C[C@H](CO)N1C[C@H](C)[C@@H](CN(C)S(=O)(=O)c2ccc(Cl)cc2)Oc2ccc(NC(=O)CCCN(C)C)cc2C1=O,inactive
6,CSc1cnc2c(=O)[nH]c(=O)n(C)c2n1,inactive
7,C[C@@H]1CN([C@@H](C)CO)C(=O)c2cc(NC(=O)Nc3ccc(C(F)(F)F)cc3)ccc2O[C@@H]1CN(C)Cc1ccc(Oc2ccccc2)cc1,active
8,O=C(Cn1ccc([N+](=O)[O-])n1)Nc1cccnc1,inactive
9,COc1ccc(NC(=O)N(C)C[C@H]2Oc3ccc(NS(C)(=O)=O)cc3C(=O)N([C@@H](C)CO)C[C@@H]2C)cc1,inactive
10,O=C(Nc1cc(C(F)(F)F)cc(C(F)(F)F)c1)Nc1cnn(-c2ccc([N+](=O)[O-])cc2)c1C(F)(F)F,inactive
11,COc1ccc2c3c([nH]c2c1)[C@H](CO)N(C[C@]13CCN(CC1)Cc1ccccc1OC)C(=O)Nc1ccc(cc1)F,inactive
12,Cc1noc(C)c1NC(=O)N[C@@H]1C=C[C@@H](CC(=O)NCCCN(C)C)O[C@@H]1CO,inactive
13,Cc1ccc(S(=O)(=O)N(C)C[C@@H]2OCCCC[C@H](C)Oc3ccc(NS(C)(=O)=O)cc3C(=O)N([C@@H](C)CO)C[C@H]2C)cc1,inactive
14,O=C1CC[C@@H](C(=O)N2CSC[C@H]2C(=O)O)N1,inactive
15,c1ccn(CCN2CCNCC2)c1,inactive
16,O=C(C[C@H]1C=C[C@H](NC(=O)CN2CCOCC2)[C@@H](CO)O1)NCCc1ccncc1,inactive
17,C[C@@H]1CN([C@@H](C)CO)C(=O)c2cc(NS(=O)(=O)c3cccs3)ccc2O[C@@H]1CN(C)S(C)(=O)=O,inactive
18,C[C@@H]1CCCCO[C@@H](CN(C)S(=O)(=O)c2cccs2)[C@@H](C)CN([C@H](C)CO)C(=O)c2cc(NC(=O)Cc3ccccc3)ccc2O1,inactive
19,COc1ccc(NC(=O)N(C)C[C@H]2OCCCC[C@@H](C)Oc3ccc(NS(=O)(=O)c4ccc(Cl)cc4)cc3C(=O)N([C@@H](C)CO)C[C@@H]2C)cc1,inactive
20,CCCN(C)C[C@@H]1OCCCC[C@@H](C)Oc2ccc(NS(C)(=O)=O)cc2C(=O)N([C@H](C)CO)C[C@H]1C,inactive
